Consider one molecule from patent US20220267436A1 (NANJING GENSCRIPT BIOTECH, published 2022).

For the assay, the target named is T1, human LAG-3 (human, UniProt P18627 23-525).
T1 construct: whole, on cells; also called LAG-3 antigen
T1 sequence (looked up): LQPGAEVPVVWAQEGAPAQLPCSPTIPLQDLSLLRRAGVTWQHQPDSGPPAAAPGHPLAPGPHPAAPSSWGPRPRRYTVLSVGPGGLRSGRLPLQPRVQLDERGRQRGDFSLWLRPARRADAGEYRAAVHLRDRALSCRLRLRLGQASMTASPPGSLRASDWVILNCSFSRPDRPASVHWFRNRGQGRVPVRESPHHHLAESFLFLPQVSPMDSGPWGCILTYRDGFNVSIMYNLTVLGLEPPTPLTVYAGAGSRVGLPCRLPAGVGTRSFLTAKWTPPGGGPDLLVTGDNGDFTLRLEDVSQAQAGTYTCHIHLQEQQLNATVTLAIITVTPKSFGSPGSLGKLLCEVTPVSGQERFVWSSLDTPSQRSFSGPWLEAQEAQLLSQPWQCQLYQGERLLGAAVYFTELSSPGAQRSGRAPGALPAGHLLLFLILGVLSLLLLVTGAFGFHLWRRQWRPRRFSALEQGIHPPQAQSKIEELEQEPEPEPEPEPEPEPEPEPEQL
In words: flow cytometry on CHO-K1 cells expressing human LAG-3. On the procedure: For the constructed series of bispecific antibodies, the affinity of these samples with antigens was measured by using a flow cytometer. […] Then, an antibody-antigen binding curve was generated based on the geometric mean, raw data of four parameters was plotted by using the […] Prism V6.02 software, and a best fitted value program was compiled to analyze EC₅₀.
(In flow cytometry, cells or beads pass a laser one at a time.)

B1: Fc fusion protein sdAb-LAG3-IgG4PE (Fc fusion)
chain: EVQLVESGGGLVQPGGSLRLSCAASGYTVSSYCMGWFRQAPGKGREGVSAIDSDGSVSYADSVKGRFTISKDNSKNTLYLQMNSLRAEDTAVYFCAADLCWVDQDQGEYNTWGQGTLVTVSS[letters of human IgG4 Fc with changes omitted]
notes: also called H7; sdAb control
As for B1, the binding result was “binds”.
